# Source: the supplement of paper PMC8183993
# Where a name gives a salt, the structure may show the parent alone. ± gives the standard deviation of the averaged measurements. Whole data set: some 3,200 compounds, median “nuclei count (viability) relative to DMSO” near 99, cut for the lowest 2% near 16. The list shows a part of the results.
# System: U2OS
# Assay: nuclei count (viability) relative to DMSO (% of DMSO); higher = more viable cells
# Conditions: 10 µM; 24 h
# Protocol: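 Primary image-based screen in U2OS cells: compounds at 10 uM for 24 h, then a 1 h o-propargyl-puromycin (OPP) pulse, click labelling, and high-throughput microscopy. Mean cytoplasmic OPP intensity and nuclei count were normalised to DMSO wells within each plate (DMSO = 100) and averaged over triplicate plates.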
row,SMILES,nuclei count
1,COc1cccc(Nc2c(C(N)=O)cnc3c(C)cc(S(=O)(=O)c4cccc(C(=O)N(C)C)c4)cc23)c1,109
2,O=C(O)C=C1CCCc2ccccc2C1O (stereo unspecified),103
3,CC(=O)CCCCn1c(=O)c2c(ncn2C)n(C)c1=O [Pentoxifylline],94.1
4,CN1C(=O)OC(C)(C)C1=O [Trimethadione],95.3
5,CN(C/C=C/c1ccccc1)Cc1cccc2ccccc12 [Naftifine hydrochloride],110
6,COc1cc2c(cc1OCCCN1CCCC1)N=C(N)C21CCC1,94.7
7,O=C(c1ccc(/C=C/c2n[nH]c3ccccc23)cc1)N1CCNCC1,41.9
8,C/C(=C\C(=O)Nc1ccccc1C(=O)O)c1ccc2ccccc2c1,95.4
9,"C[C@]12CC[C@@H](O)C[C@@H]1CC[C@@H]1[C@@H]2CC[C@]2(C)C=CC[C@@H]12 [3a, 5a-Androstenol]",90.5
10,Cc1ccc(-n2sc(=O)n(Cc3ccc(F)cc3)c2=O)cc1,99.8
11,O=C(NCCN1CCOCC1)c1ccc(Cl)cc1 [Moclobemide],90.8
12,Cc1cc(Cl)ccc1OCCCC(=O)NO [Droxinostat],103
13,CN(C)CCOc1ccc(-c2nc(-c3ccncc3)c(-c3ccc4c(c3)CC/C4=N\O)[nH]2)cc1,73.6 ± 4.5
14,CN(C)CCCSC(=N)N [Dimaprit dihydrochloride],102 ± 1.6
15,C[C@H](Cc1cc2c(c(C(N)=O)c1)N(CCCO)CC2)NCCOc1ccccc1OCC(F)(F)F [Silodosin (Rapaflo)],94.1
16,C=CCNC(=O)c1cc([N+](=O)[O-])cc2c(=O)[nH]c(Nc3ccc(Cl)c(Cl)c3)nc12,96.4
17,Cc1onc(-c2c(F)cccc2Cl)c1C(=O)N[C@@H]1C(=O)N2[C@@H]1SC(C)(C)[C@@H]2C(=O)O [Flucloxacillin sodium],109
18,CCN1CCCC(OC(=O)C(c2ccccc2)c2ccccc2)C1 (stereo unspecified) [Piperidolate hydrochloride],88
19,O=C(O)C1=CO[C@@H](O[C@@H]2O[C@H](CO)[C@@H](O)[C@H](O)[C@H]2O)[C@@H]2C(CO)=CC[C@H]12 [Geniposidic acid],101
20,Cc1ccnc(NS(=O)(=O)c2ccc(NC(=O)Nc3ccc(S(=O)(=O)Nc4nccc(C)n4)cc3)cc2)n1,98.2
21,CC(C)c1ccc2c(c1)CC[C@H]1[C@](C)(CN)CCC[C@]21C [Lylamine hydrochloride],27.7
22,COc1c(C)c2c(c(O)c1C/C=C(\C)CCC(=O)O)C(=O)OC2 [Mycophenolic acid],69.7
23,NS(=O)(=O)c1cc(Cl)c(Cl)c(S(N)(=O)=O)c1 [Dichlorphenamide],107
24,CS(=O)(=O)c1ccc(-c2cnc(N)c(C(=O)Nc3ccccc3)n2)cc1,92.1 ± 1.1
25,CN1CCC(Nc2ncc3ncnc(Nc4ccc(F)c(Cl)c4)c3n2)CC1 [BIBX 1382 dihydrochloride],87
26,COC(=O)Nc1ccc(-c2nc(N3CCOCC3)c3cnn(C4CCN(C(=O)OC)CC4)c3n2)cc1,85.9

row,SMILES,nuclei count
1,CNC[C@H](O)[C@@H](O)[C@H](O)[C@H](O)CO [Meglumine],107
2,Nc1ccc(S(=O)(=O)Nc2cnc3ccccc3n2)cc1 [Sulfaquinoxaline sodium salt],86.3
3,NCCCC(O)(P(=O)(O)O)P(=O)(O)O [Alendronate],103
4,NCCCC(O)(P(=O)(O)O)P(=O)(O)O [Alendronate sodium],102
5,NCCCC(O)(P(=O)(O)O)P(=O)(O)O [Alendronate (Fosamax)],109
6,COC(=O)N[C@H](C(=O)N[C@@H](Cc1ccccc1)[C@@H](O)CN(Cc1ccc(-c2ccccn2)cc1)NC(=O)[C@@H](NC(=O)OC)C(C)(C)C)C(C)(C)C [Atazanavir sulfate],100
7,CCC[S+]([O-])c1ccc2[nH]c(NC(=O)OC)nc2c1 (stereo unspecified) [Albendazole Oxide (Ricobendazole)],97.9
8,NC(=O)OCC(COC(N)=O)c1ccccc1 [Felbamate],96.1
9,Cc1ccnc(NS(=O)(=O)c2ccc(N)cc2)n1 [Sulfamerazine],104
10,C[C@H]1NC(=O)NC1=O [Methylhydantoin-5-(D)],107
11,N=C(N)NCc1cccc(I)c1 [Iobenguane sulfate],106
12,O=C1CCN(c2ccccc2)N1 [Phenidone],107
13,O=c1ccn([C@@H]2O[C@H](CO)[C@@H](O)[C@H]2O)c(=O)[nH]1 [Uridine],99.3
14,COc1ccc2[nH]c(-c3ccccc3)c(CCNC(C)=O)c2c1 [2-Phenylmelatonin],84.5
15,O=C(NCCCN1CCCCCC1)C(c1ccccc1)C1CCCCC1 (stereo unspecified),103
16,CC(C)n1c(/C=C/C(O)CC(O)CC(=O)O)c(-c2ccc(F)cc2)c2ccccc21 (stereo unspecified) [Fluvastatin sodium salt],105
17,CC(C)n1c(/C=C/C(O)CC(O)CC(=O)O)c(-c2ccc(F)cc2)c2ccccc21 (stereo unspecified) [Fluvastatin sodium (Lescol)],95.2
18,N[C@H](C(=O)O)[C@@H]1CC(Cl)=NO1 [Acivicin],65.9
19,CC(=O)Oc1ccccc1C(=O)Oc1ccccc1C(=O)O [Acetylsalicylsalicylic acid],97.1
20,CNC(=O)c1c(I)c(C(=O)NCC(=O)Nc2c(I)c(C(=O)O)c(I)c(C(=O)NCCO)c2I)c(I)c(N(C)C(C)=O)c1I [Ioxaglic acid],95.6
21,C[C@H](Cn1cnc2c(N)ncnc21)OCP(=O)(O)O [Tenofovir (Viread)],108
22,CCCCNc1cc(C(=O)O)cc(S(N)(=O)=O)c1Oc1ccccc1 [Bumetanide],100
23,CC[C@H](C)C(=O)O[C@H]1C[C@@H](C)C=C2C=C[C@H](C)[C@H](CC[C@@H]3C[C@@H](O)CC(=O)O3)[C@H]21 [Lovastatin],94.8 ± 2.2
24,CC[C@H](C)C(=O)O[C@H]1C[C@@H](C)C=C2C=C[C@H](C)[C@H](CC[C@@H]3C[C@@H](O)CC(=O)O3)[C@H]21 [Lovastatin (Mevacor)],100
25,Clc1ccc(C(Cn2ccnc2)OCc2ccc(Sc3ccccc3)cc2)c(Cl)c1 (stereo unspecified) [Fenticonazole nitrate],86.1
